These results are taken from a collection of fitness landscapes (doi:10.1126/science.1257360).

The list shows a part of the results.

To fix the notation:
B1: PhoQ; a variant is named by its letters at X, in order, P23837 (parent)
chain: MKKLLRLFFPLSLRVRFLLATAAVVLVLSLAYGMVALIGYSVSFDKTTFRLLRGESNLFYTLAKWENNKLHVELPENIDKQSPTMTLIYDENGQLLWAQRDVPWLMKMIQPDWLKSNGFHEIEADVNDTSLLLSGDHSIQQQLQEVREDDDDAEMTHSVAVNVYPATSRMPKLTIVVVDTIPVELKSSYMVWSWFIYVLSANLLLVIPLLWVAAWWSLRPIEALAKEVRELEEHNRELLNPATTRELTSLVRNLNRLLKSERERYDKYRTTLTDLTHSLKTPLXXLQXXLRSLRSEKMSVSDAEPVMLEQISRISQQIGYYLHRASMRGGTLLSRELHPVAPLLDNLTSALNKVYQRKGVNISLDISPEISFVGEQNDFVEVMGNVLDNACKYCLEFVEISARQTDEHLYIVVEDDGPGIPLSKREVIFDRGQRVDTLRPGQGVGLAVAREITEQYEGKIVAGESMLGGARMEVIFGRQHSAPKDE

Variants of B1 are the subject of the assay. The assay can be described thus: enrichment ratio after two sorts for PhoP signalling (ratio (wild type AVST 3.29)); higher = more functional. The note with it: with PhoP (E. coli).
Take EMVF: the enrichment ratio is at most 0.25. In the case of WFAH, the enrichment ratio was at most 0.25. On to NHWV, for which the enrichment ratio was at most 0.25. Regarding QTVN, the enrichment ratio was at most 0.25. In the case of IMHK, the enrichment ratio was at most 0.25. The value for QECM was at most 0.25; that for DETG was at most 0.25; that for KMKD was at most 0.25. With PWHL, the enrichment ratio was at most 0.25. In the case of MIIF, the enrichment ratio is at most 0.25. In the case of DAFR it was at most 0.25; in that of SDCT, 4.8; in that of MIFI, 4.01. For the variant QPTV, the enrichment ratio is at most 0.25. On to VNAW, for which the enrichment ratio is at most 0.25.

Take GSKM: the enrichment ratio is at most 0.25. Take VALH: the enrichment ratio was determined as 1.54. In the case of ICGN it was at most 0.25; in that of YHME, at most 0.25. Turning to SNSL, the enrichment ratio was 16.8. Regarding HWCP, the enrichment ratio was at most 0.25.

For the variant KHIY, the enrichment ratio was at most 0.25.

DNKN: the enrichment ratio is at most 0.25. For QMRH, the enrichment ratio was at most 0.25. In the case of YFMY, the enrichment ratio was at most 0.25. In the case of DCAD it was at most 0.25; in that of DHWR, at most 0.25; in that of PVEK, at most 0.25. Consider LVGD, for which the enrichment ratio is at most 0.25. Take VNFE: the enrichment ratio was at most 0.25. In the case of FWSS, the enrichment ratio is at most 0.25. As for GWFV, the enrichment ratio was at most 0.25. Consider PPIW, for which the enrichment ratio is at most 0.25. As for FIWG, the enrichment ratio is at most 0.25. In the case of LFFQ it was at most 0.25; in that of RTWG, at most 0.25; in that of CVCF, at most 0.25.

For the variant ANCW, the enrichment ratio is 6.44. On to SIWN, for which the enrichment ratio worked out at 4.21. For the variant GRAP, the enrichment ratio is at most 0.25. Take DHHM: the enrichment ratio was at most 0.25. Consider QQTD, for which the enrichment ratio is at most 0.25.

For IVPG, the enrichment ratio is at most 0.25. As to NIRD, the enrichment ratio was at most 0.25. Take LIGH: the enrichment ratio was at most 0.25. As for KDNK, the enrichment ratio was at most 0.25. Turning to VGIT, the enrichment ratio was at most 0.25. As to MVKC, the enrichment ratio is at most 0.25.

In the case of EEGF, the enrichment ratio was at most 0.25. TKKC: the enrichment ratio is at most 0.25. Consider NYWY, for which the enrichment ratio is at most 0.25. For EGNT, the enrichment ratio was at most 0.25.

Consider FMSM, for which the enrichment ratio was at most 0.25.

With QGES, the enrichment ratio is at most 0.25. Take VMMA: the enrichment ratio was at most 0.25. In the case of NLTT, the enrichment ratio is at most 0.25.

Consider DCGL, for which the enrichment ratio was at most 0.25.

With GFYW, the enrichment ratio was at most 0.25.

FLME: the enrichment ratio is at most 0.25. Turning to DPIE, the enrichment ratio is at most 0.25. On to NVAK, for which the enrichment ratio is at most 0.25. As to NYKI, the enrichment ratio was at most 0.25. For KMVP, the enrichment ratio is at most 0.25. In the case of MGGP, the enrichment ratio was at most 0.25.

As for LLYG, the enrichment ratio was at most 0.25. In the case of VAGQ, the enrichment ratio was at most 0.25.

VIPN: the enrichment ratio is at most 0.25.

As for DPYC, the enrichment ratio is at most 0.25. As for SPDL, the enrichment ratio was at most 0.25.

Take WTTL: the enrichment ratio is at most 0.25.

For FRDV, the enrichment ratio was at most 0.25. For the variant VSDM, the enrichment ratio is at most 0.25. With KKSF, the enrichment ratio was at most 0.25. As for VCCV, the enrichment ratio is at most 0.25. Consider NFTF, for which the enrichment ratio was at most 0.25. Take WIQN: the enrichment ratio was at most 0.25. For WQWR, the enrichment ratio was at most 0.25. On to GAFM, for which the enrichment ratio was at most 0.25. In the case of IRNK it was at most 0.25. Consider IWTN, for which the enrichment ratio is at most 0.25. The value for SQCA was 8.55.

Take VFCK: the enrichment ratio was at most 0.25. On to PAKE, for which the enrichment ratio was at most 0.25. Take YRKQ: the enrichment ratio was at most 0.25. The value for ESGK was at most 0.25; that for PIHD was at most 0.25; that for SCSA was 9.03. The value for IQDS was at most 0.25; that for SWGD was at most 0.25. DTWG: the enrichment ratio was at most 0.25. With WHVA, the enrichment ratio is at most 0.25.

Consider THVE, for which the enrichment ratio was at most 0.25. In the case of DTPW it was at most 0.25; in that of TLLH, at most 0.25; in that of NTCM, at most 0.25. For the variant LNHE, the enrichment ratio is at most 0.25.

Turning to RDYM, the enrichment ratio is at most 0.25. As to ADQH, the enrichment ratio was at most 0.25. The value for LPPA was at most 0.25; that for HDKT was at most 0.25.

For REAF, the enrichment ratio was at most 0.25. The value for NDEL was at most 0.25; that for EHTN was at most 0.25. With ARYD, the enrichment ratio was at most 0.25.

In the case of KPIH, the enrichment ratio was at most 0.25.

For the variant WLTM, the enrichment ratio is at most 0.25. Regarding YANY, the enrichment ratio is at most 0.25. For TNRE, the enrichment ratio was at most 0.25. VMIN: the enrichment ratio is at most 0.25.

With RSVE, the enrichment ratio is at most 0.25.

Take LISI: the enrichment ratio was at most 0.25. For the variant WETS, the enrichment ratio was at most 0.25. PVLE: the enrichment ratio is at most 0.25.

WDVM: the enrichment ratio is at most 0.25. As to ESVE, the enrichment ratio was at most 0.25. On to NCQR, for which the enrichment ratio was at most 0.25.

Take PGLN: the enrichment ratio is at most 0.25. The value for HFLN was at most 0.25; that for REHA was 1.44; that for NTVL was at most 0.25.

Turning to LMVA, the enrichment ratio was at most 0.25. Turning to KHPI, the enrichment ratio is at most 0.25. Regarding SYLR, the enrichment ratio was at most 0.25. As for RFSE, the enrichment ratio is at most 0.25. In the case of VFGQ it was at most 0.25.

Turning to LAMY, the enrichment ratio was at most 0.25.

Regarding HFDD, the enrichment ratio is at most 0.25.

For the variant FRPI, the enrichment ratio is at most 0.25. In the case of VHAT it was at most 0.25. As to VVTD, the enrichment ratio is at most 0.25. NKAV: the enrichment ratio was at most 0.25.

In the case of SGHE, the enrichment ratio is at most 0.25.

For the variant HQMW, the enrichment ratio is at most 0.25. In the case of LARM it was at most 0.25. On to SEYM, for which the enrichment ratio was determined as 19.4.

As for QEVT, the enrichment ratio is at most 0.25. PHDE: the enrichment ratio was at most 0.25. Regarding LRRS, the enrichment ratio was at most 0.25.

On to RLWY, for which the enrichment ratio is at most 0.25. KFQC: the enrichment ratio was at most 0.25.

Regarding KNRL, the enrichment ratio was at most 0.25.

With TQQF, the enrichment ratio worked out at 33.4. For HMCK, the enrichment ratio was at most 0.25. As to SLNW, the enrichment ratio is at most 0.25. Consider AAPQ, for which the enrichment ratio is at most 0.25. Consider CSPV, for which the enrichment ratio was at most 0.25. For the variant PYAL, the enrichment ratio was at most 0.25.

On to PWCL, for which the enrichment ratio was at most 0.25. Regarding ATYI, the enrichment ratio is at most 0.25.

For the variant IFID, the enrichment ratio is at most 0.25. With YDPF, the enrichment ratio is at most 0.25. Consider STLQ, for which the enrichment ratio is 18.3. For YSSC, the enrichment ratio was at most 0.25.

For DAVW, the enrichment ratio was at most 0.25.

As for SLPV, the enrichment ratio turned out to be 1.39. With FIAP, the enrichment ratio was at most 0.25. Consider RFLH, for which the enrichment ratio was at most 0.25. EDMD: the enrichment ratio was at most 0.25. SQDF: the enrichment ratio was at most 0.25. Turning to QNIG, the enrichment ratio is at most 0.25. Regarding TRNH, the enrichment ratio is at most 0.25.

As to EAPN, the enrichment ratio is at most 0.25.

Consider DGMD, for which the enrichment ratio was at most 0.25.

With YQCY, the enrichment ratio was at most 0.25.

Take SQGH: the enrichment ratio was 4.25. In the case of NCYM, the enrichment ratio is at most 0.25. Turning to VKSE, the enrichment ratio was at most 0.25. Regarding TNIT, the enrichment ratio was at most 0.25. In the case of TCFD it was at most 0.25; in that of TVRQ, at most 0.25; in that of NSKT, at most 0.25. In the case of GGDI, the enrichment ratio is at most 0.25.

Consider VPYD, for which the enrichment ratio is at most 0.25. In the case of FECN, the enrichment ratio amounted to 13. In the case of DVDD it was at most 0.25. The value for DHGL was at most 0.25. In the case of IEGI, the enrichment ratio is at most 0.25. Take EGSE: the enrichment ratio is at most 0.25. GRVQ: the enrichment ratio was at most 0.25.

Consider SSGY, for which the enrichment ratio came to 9.85. On to LFFV, for which the enrichment ratio is at most 0.25. The value for WGQK was at most 0.25; that for ATSS was 9.75. With AGDP, the enrichment ratio is at most 0.25. For ACLK, the enrichment ratio was 13.7. The value for TISI was 16.9. As for RIYR, the enrichment ratio was at most 0.25. Turning to LFSS, the enrichment ratio was at most 0.25. Consider EHLT, for which the enrichment ratio was at most 0.25.

For the variant MKHP, the enrichment ratio was at most 0.25. As for EYCH, the enrichment ratio is at most 0.25. For the variant NWGA, the enrichment ratio is at most 0.25.

Turning to FLWF, the enrichment ratio was at most 0.25. In the case of DSCP, the enrichment ratio is at most 0.25. As for VAKF, the enrichment ratio is at most 0.25.
